{
  "source": "the supplement of paper PMC9513381",
  "binders": {"B1": {"name": "B2084 (protein)", "chain 1": "EVQLVESGGALVQPGGSLRLSCVTSGFTLSDYWMNWVRQAPGKGLEWVALIKKDGSETKYVDSLRGRFTISRDNAKNSLYLQMDSLRVDDTAVYYCVAGAGWLPDYWGQGTLVTVSS", "chain 2": "QSVLTQPPSVSAAPGQKVTISCSGSSSNIGNNYVSWYQQLPGTAPKLLIYENNKRASGIPDRFSGSKSGTSATLGITRLQSGDEADYYCGTWDSNLSASWVFGGGTKLTVL"}, "B2": {"name": "B005 (protein)", "chain 1": "QVQLVESGGGVVQPGRSLRLSCAASGFTFSHYGMHWVRQAPGKGLEWVAVILYDGSDKYYADSVKGRFTISRDNSKNMLYLQMNSLRAEDRAIYYCAKDLGSYAYLFNYFDYWGQGTLVTVSS", "chain 2": "EIVLTQSPGTLSLSPGERATLSCRASQSVGGGYLAWYQQKPGQAPRLLIYGASSRATGVPDRFSGSGSGTDFTLTISRLEPEDFAVYYCQQYSSSRTFGQGTKVEIK"}, "B3": {"name": "B012 (protein)", "chain 1": "QVQLVESGGGVVQPGRSLRLSCAASGFTFSTYGMHWVRQAPGKGLEWVALISYDGSDKYYADSVKGRFTISRDNSKDTLFLRLNSLRAEDTAVYYCAKQISPYYASGRSYFDYWGQGVLVTVSS", "chain 2": "EIVLTQSPATLSLSPGERATLSCGASQSVSSGYLAWYQHKPGLAPRLLMYDASTRATGIPDRFSGSGSGTDFTLTISRLEPEDFAVYFCQQYGSSPITFGQGTRLEIK"}, "B4": {"name": "B2089 (protein)", "chain 1": "QVQLVESGGGVVQPGRSLRLSCEASGFSFSTHGMHWVRQAPGKGLEWVALIYFDGKKTKYSDSVKGRFTVSRDNSRNTLFLQMTRLRTEDTAVYYCAREGEVTLIVGNYFDYWGQGTLVTVSS", "chain 2": "DIQMTQSPSSLSASVGDRVTITCRASQYISNYLNWYQQKPGKAPKLLIYAASSLQSGVPSRFSGSGSGTDFTLTISSLQPEDFATYYCQQSYTNPLYTFGQGTKLEIK"}, "B5": {"name": "B2092 (protein)", "chain 1": "EVQLVESGGGLVQPGGSLRLSCAASGFTFSSFNMNWVRQAPGKGLEWVSYISTSGSTIYYADSVEGRFSISRDNAKNSLYLQMNSLRDEDTAVYYCARGVGPRSYYYYGMDVWGQGTTVTVSS", "chain 2": "DIQMTQSPSSLSASVGDRVTITCRASQSISSFLNWYQQKPGKAPNLLIYAASSLASGVPSRFSGSGSGTDFTLTISSLQPEDFATYYCQQSYSTLPITFGQGTRLEIK"}, "B6": {"name": "B004 (protein)", "chain 1": "QVQLVESGGGVVQPGRSLRLSCAASGFPFSSYAIHWVRQSPGKGLEWVAVISSDGNFKYSADSVKGRFTISRDNSKSTLYLQMNSLRAEDTAVYYCAREADDDMGIVPIFDYWGQGTLVTVSS", "chain 2": "QSALTQPASVSGSPGQSISISCTGTSSDVGSYNLVSWYQHHPGKAPKSIIYEDTKRPSGVSNRFSGSKSGNTASLTISGLQAEDEGDYYCCSYAGSHTWVFGGGTKVTVL"}, "B7": {"name": "B018 (protein)", "chain 1": "EVQLVESGGGLVQPGGSLRLSCAASGFTFSNYWMTWVRQAPGKGLEWVASIKQDGSETFYVDSVKGRFTISRDNAKNSLHLHMNSLRPEDTAVYYCARAETDYIAAGGSPEYFQHWGQGTLVTVSS", "chain 2": "DIQMTQSPSSLSASVGDRVIITCQASQDIGNFLNWFQQRPGRAPKLLIYDASNLDTGVPARFSGSGSGTDFTFTISSLQPEDIATYYCQHYDNVALTFGGGTKVDFK"}, "B8": {"name": "B2094 (protein)", "chain 1": "QVQLQESGPGLVKASETLSLTCTVSGDSISRYYWSWIRQPPGKGLEWIGYIYDSRSTNYNPSLKSRVTISIDTSKNHFSLKLSSVTAADTAVYYCARHEVLTAILPYFDLWGRGTLVTVSS", "chain 2": "DIQMTQSPSSLSASVGDRVTITCRASQSINRYLNWYQQKPGKAPKLLIYAASTLQSEVPSRFSGSGSGTDFTLTISSLQPEDFATYYCQQSYSPRGITFGPGTKVDVK"}},
  "note": "Recombinant human monoclonal antibodies (heavy:light variable regions). ELISA EC50 on the named antigen, from 10 µg/ml down; IC50 / IC90 against spike pseudovirus on 293T-ACE2 cells, 48 h; lower = stronger. Calls: IC50 above 1,000 ng/ml = non-neutralizing; EC50 above 1,000 ng/ml = non-binder. The source prints 1000 for neutralization that was not reached; it is given as >1000 ng/ml. Only binders of the Wuhan-Hu-1 domain have neutralization values.",
  "data": [
    {"molecular_target": "SARS-CoV-2 Delta (B.1.617.2) spike RBD", "experiment": "ELISA binding EC50; higher = weaker binding; ELISA of recombinant human antibody on coated antigen, from 10 µg/ml in fourfold dilutions; four-parameter fit.", "units": {"ELISA binding EC50": "µg/mL"}, "values": [
      {"binder": "B1", "ELISA binding EC50": "> 1"},
      {"binder": "B2", "ELISA binding EC50": "> 1"},
      {"binder": "B3", "ELISA binding EC50": "> 1"},
      {"binder": "B4", "ELISA binding EC50": "> 1"},
      {"binder": "B5", "ELISA binding EC50": "> 1"},
      {"binder": "B6", "ELISA binding EC50": "> 1"},
      {"binder": "B7", "ELISA binding EC50": "> 1"},
      {"binder": "B8", "ELISA binding EC50": "> 1"}
    ]},
    {"molecular_target": "SARS-CoV-2 Omicron BA.1 spike protein", "experiment": "ELISA binding EC50; higher = weaker binding; ELISA of recombinant human antibody on coated antigen, from 10 µg/ml in fourfold dilutions; four-parameter fit.", "units": {"ELISA binding EC50": "µg/mL"}, "values": [
      {"binder": "B1", "ELISA binding EC50": "> 1"},
      {"binder": "B2", "ELISA binding EC50": 0.0125},
      {"binder": "B3", "ELISA binding EC50": "> 1"},
      {"binder": "B4", "ELISA binding EC50": "> 1"},
      {"binder": "B5", "ELISA binding EC50": "> 1"},
      {"binder": "B6", "ELISA binding EC50": "> 1"},
      {"binder": "B7", "ELISA binding EC50": "> 1"},
      {"binder": "B8", "ELISA binding EC50": "> 1"}
    ]},
    {"molecular_target": "SARS-CoV-2 Wuhan-Hu-1 spike receptor-binding domain", "experiment": "ELISA binding EC50; higher = weaker binding; ELISA of recombinant human antibody on coated antigen, from 10 µg/ml in fourfold dilutions; four-parameter fit.", "units": {"ELISA binding EC50": "µg/mL"}, "values": [
      {"binder": "B1", "ELISA binding EC50": "> 1"},
      {"binder": "B2", "ELISA binding EC50": "> 1"},
      {"binder": "B3", "ELISA binding EC50": "> 1"},
      {"binder": "B4", "ELISA binding EC50": "> 1"},
      {"binder": "B5", "ELISA binding EC50": "> 1"},
      {"binder": "B6", "ELISA binding EC50": "> 1"},
      {"binder": "B7", "ELISA binding EC50": "> 1"},
      {"binder": "B8", "ELISA binding EC50": "> 1"}
    ]}
  ]
}
